According to PMC4336329 (PLoS ONE, 2015):
Out of some 310,000 compounds screened, about 14,000 (4.5%) showed an effect of 50% or more. Effects have a minus sign here. The list shows a part of the results.

Target: human ether-à-go-go-related gene (hERG) potassium channel (human, UniProt Q12809)
Test: primary screen, population patch clamp on CHO cells stably expressing hERG
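Further: peak tail current of the secondary pulse compared with the same well before compound.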

Chain of human ether-à-go-go-related gene (hERG) potassium channel (Q12809 whole entry, looked up): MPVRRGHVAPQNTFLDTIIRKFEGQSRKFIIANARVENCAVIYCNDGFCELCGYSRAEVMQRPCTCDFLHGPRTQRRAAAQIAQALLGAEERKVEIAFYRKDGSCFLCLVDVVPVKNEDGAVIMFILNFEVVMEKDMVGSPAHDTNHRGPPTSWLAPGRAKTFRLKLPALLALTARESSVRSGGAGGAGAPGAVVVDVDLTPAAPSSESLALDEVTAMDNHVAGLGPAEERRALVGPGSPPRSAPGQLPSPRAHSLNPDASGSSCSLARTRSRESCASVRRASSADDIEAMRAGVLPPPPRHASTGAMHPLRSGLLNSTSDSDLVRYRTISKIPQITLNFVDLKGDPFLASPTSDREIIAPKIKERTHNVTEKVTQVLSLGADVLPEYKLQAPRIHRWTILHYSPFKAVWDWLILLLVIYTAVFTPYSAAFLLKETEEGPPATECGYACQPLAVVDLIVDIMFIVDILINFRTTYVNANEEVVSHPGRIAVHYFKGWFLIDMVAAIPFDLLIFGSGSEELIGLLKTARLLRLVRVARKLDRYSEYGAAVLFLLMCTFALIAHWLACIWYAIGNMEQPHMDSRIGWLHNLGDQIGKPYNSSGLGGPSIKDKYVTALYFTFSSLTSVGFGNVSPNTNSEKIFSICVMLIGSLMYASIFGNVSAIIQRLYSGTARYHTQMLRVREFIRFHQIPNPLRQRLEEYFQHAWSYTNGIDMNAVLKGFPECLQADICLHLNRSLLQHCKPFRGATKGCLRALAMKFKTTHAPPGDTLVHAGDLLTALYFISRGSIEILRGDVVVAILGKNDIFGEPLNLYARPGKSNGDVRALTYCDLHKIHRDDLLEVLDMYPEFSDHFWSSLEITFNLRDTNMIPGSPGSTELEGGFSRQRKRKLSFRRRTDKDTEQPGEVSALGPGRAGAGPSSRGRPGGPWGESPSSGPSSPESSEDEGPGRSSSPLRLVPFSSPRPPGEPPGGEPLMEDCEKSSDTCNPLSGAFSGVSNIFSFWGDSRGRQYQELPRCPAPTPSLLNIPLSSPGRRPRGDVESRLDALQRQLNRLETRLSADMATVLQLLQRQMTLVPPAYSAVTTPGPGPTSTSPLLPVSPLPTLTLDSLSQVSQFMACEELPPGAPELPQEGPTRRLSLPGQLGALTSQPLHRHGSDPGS

Row | Structure (SMILES) | hERG current change (%, negative = inhibition) at 10uM [%]
1 | O=[N+]([O-])c1cc(-c2ccc(C(=S)N3CCOCC3)o2)ccc1Cl | 11.9
2 | O=C(CSc1nc2c(c(=O)n1-c1ccc(Cl)cc1)SCC2)N1CCOCC1 | -14.2
3 | CCOC(=O)N1CCN(CC(=O)n2c(C)c(C)c3ccccc32)CC1.O=C(O)C(=O)O | -13
4 | Cc1ccc(NC(=O)CN2C(=O)NC3(CCCC3)C2=O)cc1S(=O)(=O)N1CCCCC1 | -15.6
5 | COc1cc(C(=O)Nc2nc3ccccc3s2)ccc1OCc1c(C)noc1C | 3.33
6 | CNC(=O)NNC(=O)c1csc(-c2ccc(C(F)(F)F)cc2Cl)n1 | 5.24
7 | CCC1=NN2C(=N)/C(=C\c3cccn3-c3ccc(C)c(C)c3)C(=O)N=C2S1 | -6.32
8 | C/C(Cc1ccccc1)=N\NC(=O)c1ccccn1 | 22.5
9 | Cc1ccc(S(=O)(=O)N2CCOC2CNC(=O)C(=O)NCc2cccnc2)cc1 (stereo not shown) | 14.4
10 | C/C(CC(=O)Nc1c(C)cc(C)cc1C)=N\NC(=O)OC(C)(C)C | 3.35
11 | CC(OC(=O)C1CC1C)C(=O)Nc1ncc(Cl)cc1Cl (stereo not shown) | 8.13
12 | O=C(Cn1c2c(c(-c3ccccc3Cl)cc1=O)CCC2)NCC1CCCO1 (stereo not shown) | -2.33
13 | COCC(C)NC(=O)Cc1ccc(Cl)cc1 (stereo not shown) | 18.7
14 | CNC(=S)N1CCN(c2nc(-c3ccc(Cl)cc3)cs2)CC1 | 14.7
15 | Cc1ccc(NS(=O)(=O)c2ccc3c(c2)NC(=O)CO3)cc1 | 7.97
16 | c1cncc(-c2nc3ccccc3[nH]2)c1 | 11.3
17 | CCN(CC)c1ccc(/C=C(/C#N)C(=O)NC(C)C)o1 | -1.68
18 | Cc1ccc(S(=O)(=O)NNC(=S)NC(=O)c2ccc([N+](=O)[O-])cc2)cc1 | -3.16
19 | CC(C)NC(=S)N/N=C/c1ccc2c(c1)OCCO2 | -37.6
20 | COc1ccc(C(=O)/C=C/c2ccccc2)c(O)c1 | 6.19
21 | CC(C)Cn1c(SCC(=O)N2CCCCC2)nc2ccccc2c1=O | -24.7
22 | O=C(CSc1nnc2c(n1)[nH]c1ccccc12)Nc1ccc(N2CCOCC2)cc1 | 11.7
23 | CCOC(=O)C(=CNc1cccc(N)n1)C(=O)OCC | -4.14
24 | N#CCN1CCN(CC(=O)Nc2ccc(OCc3ccccc3)cc2)CC1 | -4.27
25 | COc1cc([N+](=O)[O-])ccc1NC(=S)NCc1ccccn1 | 1.11
